Laboratory results: the RNAGym collection of RNA variant scans (doi:10.1093/nar/gkz1192)
Read counts are not given, so values of variants with three or more changes are uncertain.

B1: CPEB3 Ribozyme (parent)
chain: UAACAGGGGGCCACAGCAGAAGCGUUCACGUCGCAGCCCCUGUCAGAUUCUGGUGAAUCUGCGAAUUCUGCUGUAUAUCUC

Variants of: B1
Assay: self-cleavage, relative activity (ratio to wild type); higher = more cleavage; in vitro, sequencing
How it was run: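 Barcoded CPEB3 ribozyme mutants, produced by rounds of error-prone PCR, self-cleaved while being transcribed with T7 RNA polymerase for 5 hours at 37°C and during a subsequent 15 min DNase I step before EDTA was added. Sequencing of template-switched cDNA on Illumina gave cleaved and total reads, and DNA sequencing assigned barcodes to variants. Each variant's relative activity is its cleaved/total read fraction divided by the unmutated ribozyme's fraction, averaged across three batches. A variant needed a minimum of 5 reads.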

Variant | self-cleavage
UGACAGGAGGCCACAGCUGAAGCGUUCACGUCGCAGCCCCUGUCGGAUUCAGGUGAAUCUGCGAAUUCUGCUGUAUAUCUC [A2G G8A A18U A45G U51A] | 0.19
UGACAGGAGGCCACAGCAGAGGCGUUCACGUCGCAGCCCCUGUCAGACUCUGGUGAAUCUGCGAAUUCUGCUGUAUAGCUC [A2G G8A A21G U48C U78G] | 0.03
UGACAGGAGGCCACAGCAGAAGCGUUCUCGUCGCAGCCCCUGUCAGAUUCUGGUGAAUCUGCGGAUUCCGCCGUAUAACUC [A2G G8A A28U A64G U69C U72C U78A] | 0.05
UGACAGGAGGCCACAGCAGAAGCGUUCACGUCGCAGCCCCUGUCGGAUUCUGGUGAAUCUGCGAAUUCUGCCGUAUAUCUC [A2G G8A A45G U72C] | 0.42
UGACAGGAGGCCACAGCAGAAGUGUUCACGUCGCAGCCCCUGUCGGAUUCUGGUGAAUCAGCGAAUUCUGCUGUAUAUCUC [A2G G8A C23U A45G U60A] | 0.05
UGACAGGAGGCCACAGCAGAAGCGUUCACGUCGCAGCCCACGUCAGAUUCCGGUGAAUCUGCAAAUUCUGCUGUAUAUCUC [A2G G8A C40A U41C U51C G63A] | 0.07
UGACAGGAGGCCACAGCAAAAGCGUUCACGUCGCAGCCCCUGUCAGAUUCUGGUGAAUCUGCGAAUUCUGCUGUAUAUCUC [A2G G8A G19A] | 0.45
UGACAGGAGGCCACAGCAGAAGCGUUCACGUCUCAGCCCCUGCCAGAUUCUGGUGAAUCUGCGAAUUCUGCUGUAUAUCUC [A2G G8A G33U U43C] | 0.08
UGACAGGAGGCCACAGCAGAAGCGUACACGUCGCAGCCCCUGUCAGAUUCUGGUGAAUCUGCGAAUUCUGCUGUAUAUCUC [A2G G8A U26A] | 0.08
UGACAGGAGGCCACAGCAGAAGCGUUCACGCCGCAGCCCCUGCCAGAUUCUGGUGAAUCUGCGAAUUCUGCUGUAUACCCC [A2G G8A U31C U43C U78C U80C] | 0.07
UGACAGGCGGACGCCGCAGAAGCGUUCACGUCGCAGCCCCUGUCAGAUUCUGGUGAAUCUGUGAAUUCCGCUGUAUAUCUC [A2G G8C C11A A13G A15C C62U U69C] | 0.07
UGACAGGCCGCCACAGCUGAAGCGUUCACGCCGCAGCCCCUGUCAGAUUCUGGUGAAUCUGCGAAUUCUGCUGUAUAUCUC [A2G G8C G9C A18U U31C] | 0.1
UGACAGGCGGCCACAGCAGAAGCGUUCACGUCGCAGCCCCUGUCAGAUUCGGGUGAAUCUGCGUAUUCUGCUGUAUAUCCC [A2G G8C U51G A64U U80C] | 0.07
UGACAGGUGGCCACAGCAGGAGCGUCCACGUCGCAGCCCCUGCCAGAUCCCGGUGAAUCUGCGAAUUCUGCUGUAUAUCUC [A2G G8U A20G U26C U43C U49C U51C] | 0.63
UGACAGGGAGCCACUGCAGAAGCGUUCACGUCGCAGCCCCUGUCAGAUUCUGGUGAAUCUGCGAAUACUGCUGUAUAUCCC [A2G G9A A15U U67A U80C] | 0.09
UGACAGGGAGCCACAGCAGGAGCGUUCAAGUCGCAGCCCCUGUCAGAUUCUGGCGAAUCUGCGAAUUCUGCUGUAUAUCUC [A2G G9A A20G C29A U54C] | 0.09
UGACAGGGAGCCACAGCAGAAGCGUUCACGUCGCAGCCCCUGUCAGAUUCUGGUGGAUCUGCGAAUUCUGCUGUAUUUCUC [A2G G9A A56G A77U] | 0.09

Variant | self-cleavage
UGACAGGGAGCCACAGCAGAAUCGUUCACGUCGCAGCCCCUGUCAGAUUCUGGUGAAUCUGCGAAUUCUGCUGUAUAUCUC [A2G G9A G22U] | 0.09
UGACAGGGAGCCACAGCAGAAGCGUACACGUCGCAGCCCCUGUCAGAUUCUGGUGAAUCUGCGAAUUCUGCUGUAUAUCUC [A2G G9A U26A] | 0.35
UGACAGGGUGCCACGGCAGAAGCGUUCACGUCGCAGCCCCGGUCAGAUUCUGGUGAAUCCGCGAAUUCUGCCGUAUAUCUC [A2G G9U A15G U41G U60C U72C] | 0.03
UGACAGGGUGACACAGCAGAUGCGUUCACGUCGCAGCCCCUGUCAGACUCUGGUGAAUCUGCGAAUUCUGCCGUAUAUCUC [A2G G9U C11A A21U U48C U72C] | 0.16
UGACAGGGUGCCAUAGCAGAAUCGUUCACGUCGCAGCCCCUGCCAGUUUCUGGUGAAUCUGCGAAUUCUGCUGUAUAUCUC [A2G G9U C14U G22U U43C A47U] | 0.13
UGACAGGGUGCCACAGCAGAAGCGCUCACGUCGCAGCCCCUGACAGAUUCAGGUGAAUCUGCGAAUUCUACUGUAUAUCUC [A2G G9U U25C U43A U51A G70A] | 0.07
UGACAGGGUGCCACAGCAGAAGCGUUCACGUCGCAGCCCCUGUCAGAUUCUGGUGAAUCUGCGAAUUCAGCUGUAUAUCUC [A2G G9U U69A] | 0.29
UGACAGGGUGCCACAGCAGAAGCGUUCACGUCGCAGCCCCUGUCAGAUUCUGGUGAAUCUGCGAAUUCUGCUGAAUAUCUC [A2G G9U U74A] | 0.38
UGACAGGGGACCCCAGCAGAAGCGCUCACGUCGCAGCCCCUGUCAGAUUCCGGUGAAUCUGCGAAUUCUGCUGUAUAUCUC [A2G G10A A13C U25C U51C] | 0.61
UGACAGGGGACCUCAGCAGAAGCGUUCACGUCGCAGCCCCUAUCAGAUCCUGGUGAAUCUGCGAAUCAUGCUGUAUAUCUC [A2G G10A A13U G42A U49C U67C C68A] | 0.04
UGACAGGGGACCACCGCAGAAGCGUUCACGUCGCAGCCCCUGUCAGAUUCUGGUGAAUCUGCGAAUUCUGCUGUAUAUCUC [A2G G10A A15C] | 0.43
UGACAGGGGACCACGGCAGAAGCGUUCACGUCGCAGCCCCUGUCUGAUUCUGGUGAAUCUGCGGACUCUGCUGUAUACCUC [A2G G10A A15G A45U A64G U66C U78C] | 0.16
UGACAGGGGACCACAGCAGAAGCGUUCACGUCGCAGCCCCUGUCAGACUCGGGUGAAUCUGCGAAUUCUGCUGUAUAUCUC [A2G G10A U48C U51G] | 0.1
UGACAGGGGCCCACAGCAGUAGCGUUCACGUCGCAGCCCCUGUCAGACUCUGGUGAAUCUGCGAUUUCUGCUGUAUAUCUC [A2G G10C A20U U48C A65U] | 0.12
UGACAGGGGCCCACAGCAGAAGCGGUCACGUCGCAGCCCCUGUCAGAUUCUGGUGAAUCUGCGAAUUCUGCUGUAUAUCUC [A2G G10C U25G] | 0.26
UGACAGGGGUCCACAGCAGAAGCGUUCACGUCGCAGCCCCUGUCAGAUUCUUGUGAAUCUGCGAAUUCUGCUGUAUAUCUC [A2G G10U G52U] | 0.35
UGACAGGGGUCCACAGCAGAAGCGUUCACGUCGCAGCCCCGGUCAGAUUCUGGUGGAUCUGCGAAUUCUGCUGUAUAUCUC [A2G G10U U41G A56G] | 0.17
